For 73 molecules, z-score results are on record in PubChem BioAssay AID488969 (Vanderbilt High Throughput Screening Facility, 2010).

Whole data set: some 110,000 compounds, median “z-score” near -0.1, cut for the highest 2% near 2. This is one part of the list.

In this assay the target is Metabotropic glutamate receptor 8 (Rattus norvegicus) (UniProt P70579). Nature of the assay: mGluR8 Gi/Go-coupled signaling modulation – cell-based, rat, thallium flux, HTS, primary screen (AID 488969). Conditions: HEK293 rat mGluR8, GIRK (G protein-gated inwardly rectifying potassium channel) thallium flux, FluoZin2; at 10 µM; stronger effect = higher value; submaximal glutamate (EC20) added with thallium.
Sequence of UniProt P70579 (P70579 whole entry, looked up): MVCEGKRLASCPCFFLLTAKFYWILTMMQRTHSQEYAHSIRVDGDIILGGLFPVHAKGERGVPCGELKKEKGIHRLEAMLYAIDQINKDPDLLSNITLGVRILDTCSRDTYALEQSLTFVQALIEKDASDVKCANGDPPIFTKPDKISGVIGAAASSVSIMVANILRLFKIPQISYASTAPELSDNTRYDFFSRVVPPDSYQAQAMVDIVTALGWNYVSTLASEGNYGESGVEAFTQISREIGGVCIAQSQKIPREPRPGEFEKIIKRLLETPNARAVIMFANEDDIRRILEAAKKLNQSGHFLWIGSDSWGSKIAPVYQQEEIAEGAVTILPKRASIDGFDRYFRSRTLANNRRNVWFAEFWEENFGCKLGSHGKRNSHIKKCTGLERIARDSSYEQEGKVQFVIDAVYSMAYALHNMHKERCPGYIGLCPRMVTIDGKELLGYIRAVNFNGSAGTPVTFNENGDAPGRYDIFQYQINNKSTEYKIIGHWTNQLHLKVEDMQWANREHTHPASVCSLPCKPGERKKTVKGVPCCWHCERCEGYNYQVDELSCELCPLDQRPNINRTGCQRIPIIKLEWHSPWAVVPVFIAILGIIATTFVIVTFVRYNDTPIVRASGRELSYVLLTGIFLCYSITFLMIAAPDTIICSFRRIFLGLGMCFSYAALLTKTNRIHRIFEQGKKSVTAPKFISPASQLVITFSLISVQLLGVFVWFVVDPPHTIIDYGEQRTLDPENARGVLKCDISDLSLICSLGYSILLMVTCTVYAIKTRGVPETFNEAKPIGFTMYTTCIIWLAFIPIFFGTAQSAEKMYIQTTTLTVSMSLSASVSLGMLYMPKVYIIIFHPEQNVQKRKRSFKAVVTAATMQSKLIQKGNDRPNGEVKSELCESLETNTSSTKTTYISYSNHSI
`O=C(Nc1ccc(S(=O)(=O)N2CCc3ccccc3C2)cc1)C1CCCO1` (stereo not drawn) had a z-score of -0.149.
Turning to `O=C(CN1CCN(Cc2ccccc2)CC1)N/N=C\C=C/c1ccco1`, the z-score was 0.161.
In turn, `C=C(C)c1cccc(C(C)(C)NC(=O)N2CCN(c3ncccn3)CC2)c1` showed a z-score of 0.293.
`CCOc1ccccc1CN1C(=O)c2ccccc2C1C(=O)NCC1CCCO1` (stereo not drawn) yielded a z-score of 0.0424.
Next, `CC(NC(=O)CSc1ncnc2nc[nH]c12)c1ccccc1` (stereo not drawn): -0.58; `C=CCn1c(=O)n2ncnc2c2c3c(sc21)CCCC3`: -2.31; `CC(=O)c1cccc(NC(=O)CCS(=O)(=O)c2cccc3nsnc23)c1`: 0.176.
Then `COc1ccc(N2Nc3n[nH]c(N)c3N2)cc1`, with 0.76; and `CCOC(=O)c1c(NC(=O)CC(C)C)sc(C(C)=O)c1C`, with 0.78; and `COC(=O)/C(C#N)=C1/SC=C(C)N1c1ccccc1`, with 0.185.
The molecule `CCC(C)(C(=O)NC1CCCC1)N(C(=O)c1ccccn1)c1ccc(C)cc1` (stereo not drawn) came in with a z-score of 0.129.
Then `CCOC(=O)c1nnn(-c2nc(OC)nc(N3CCCC3)n2)c1-c1ccccc1`, with -0.519; and `O=C(c1ccc(Cl)cc1)N1CCCOC1`, with 0.107.
`c1nc(N2CCCC2)c2[nH]cnc2n1` had a z-score of -0.102.
Then `Cc1cc(/C=N/NC(=O)COc2cccc3cccnc23)c(C)n1-c1ccc(O)cc1`, with -0.169.
`O=S(=O)(NC1=NCCC1)c1cccc(NS(=O)(=O)c2ccc(OC(F)(F)F)cc2)c1` had a z-score of -0.199.
Turning to `O=C(NCc1ccco1)C(Cc1ccccc1)NS(=O)(=O)c1cccc2nsnc12` (stereo not drawn), the z-score is -0.0409.
Next, `CC1(C)C2([N+](=O)[O-])CN3CC1([N+](=O)[O-])CN(C2)C31CCCC1`: -0.176; `COc1ccc(C2SCC(C(=O)O)N2C(C)=O)cc1` (stereo not drawn): 0.181; `CCOC(=O)Cc1sc(N)nc1C`: -0.365.
Then `Nc1nc(N)c2sc3nc4c(cc3c2n1)CCC4`, with 0.142.
Next, `O=C(O)CCSc1nc2ccccc2s1`: -0.145; `CCn1c(=O)c(C(=O)CN2CCOCC2)c(N)n(Cc2ccccc2)c1=O`: -0.0407.
For the molecule `COCCNC(=O)c1ccc2ccccc2n1`, the z-score is -0.0969.
Then `CCOC(=O)c1c(C)n(C)c2ccc(OCC(O)CN3CCN(C)CC3)cc12` (stereo not drawn), with -0.0858.
Then `Nc1cccc(-c2cn3cc(C(F)(F)F)cc(Cl)c3n2)c1`, with -0.0801.
Then `O=C1OC(Nc2ccc(F)cc2F)c2ccccc21` (stereo not drawn), with -0.78; and `COc1ccc(OC)c(NC(=O)C23CCC(C)(C(=O)O2)C3(C)C)c1` (stereo not drawn), with 0.299; and `CC1=CC(C)(C)N(S(=O)(=O)c2ccc(C)cc2)c2ccccc21`, with 0.0263.
`CCC(=O)Nc1ccc(C(=O)NNC(=O)C(c2ccccc2)c2ccccc2)cc1` gave a z-score of -0.429.
In turn, `CCOC(=O)CC1(c2ccccc2)CCOC(C)(C)C1` (stereo not drawn) displayed a z-score of 0.114.
The molecule `O=C(CCN1C(=O)c2ccccc2C1=O)N1CCN(C(=O)c2ccccc2)CC1` came in with a z-score of -0.116.
`Cn1c(SCC(=O)Nc2nccs2)nnc1-c1ccc(S(=O)(=O)N2CCCC2)cc1` gave a z-score of -0.392.
With `CCOc1ncccc1C(=O)OCC(=O)Nc1ncc(C(F)(F)F)cc1Cl`, the z-score was -0.105.
Turning to `CCc1ccc(NC(=S)NC(=O)CC(C)C)cc1`, the z-score is 0.0726.
`CCOC(=O)N1CCN(c2c(NCCCN(C)c3ccccc3)c(=O)c2=O)CC1`: the z-score was -0.525.
Then `COc1ccccc1CN1C(=O)[C@@H]2C(CCC(N)=O)NC3(C(=O)Nc4c3ccc(Cl)c4C)[C@@H]2C1=O` (stereo partly drawn), with 1.31; and `Cc1cc(NC(=O)CSc2ccc3nnc(-c4cccc(F)c4)n3n2)no1`, with -0.196.
Next, `COc1ccccc1CNC(=O)c1ccoc1C`: 0.225; `COC(=O)C(NC(=O)c1ccco1)(Nc1cc(C)ccn1)C(F)(F)F` (stereo not drawn): 0.329; `Cc1cccc(C)c1NC(=O)CSCc1cccc(CSCC(=O)Nc2c(C)cccc2C)n1`: 0.126.
Then `CC(=O)Nc1nonc1NC(=O)CSC1=NCCS1`, with 0.171; and `COc1ccc(C2c3c4c(n(C)c3CCN2C)CCN(C)C4c2ccc(OC)cc2)cc1` (stereo not drawn), with 0.471; and `COc1ccnc(N=CNOCc2cccc(Cl)c2Cl)c1C#N`, with -0.158.
In the case of `CC(=O)c1c(C)nn(C(C)CC(=O)O)c1C` (stereo not drawn), the z-score is -0.0267.
Then `Cc1noc(C)c1CSc1nc2cc(S(=O)(=O)N3CCOCC3)ccc2o1`, with 0.848.
As for `CC1=C(C(=O)Nc2ccccc2)C(c2ccncc2)C(C#N)=C(SCC(=O)Nc2ccccc2)N1` (stereo not drawn), the z-score is -0.1.
In the case of `O=C(OCc1cnc(Cl)s1)c1cccc(Cl)c1Cl`, the z-score was -0.114.
As to `O=c1cc(-c2ccccc2)[nH]n1-c1ccc([N+](=O)[O-])cc1`, the z-score is -0.272.
`O=C(N/N=C/c1cc([N+](=O)[O-])ccc1N1CCNCC1)c1ccc([N+](=O)[O-])cc1` registered a z-score of 0.214.
Then `C=CCC(CC=C)(NC(=O)c1ccccc1C)c1ccccc1`, with -0.397; and `Cc1cccc(OCC(=O)NCC(=O)n2nc(C)cc2C)c1`, with 0.134.
`COc1ccc(CSc2nc(C)cc(=O)[nH]2)cc1Br` registered a z-score of -1.02.
Then `O=C(NC1CCCC1)C1(c2ccccc2)CCN(S(=O)(=O)c2ccccc2)CC1`, with -0.701; and `CCCOc1ccc(C(=O)NC(C)C(=O)O)cc1` (stereo not drawn), with 0.427; and `CCN(C1CCCCC1)S(=O)(=O)c1ccc(C(=O)O)cc1`, with 0.0871.
`Cc1nn2c3ccccc3n(CCN3CCCCC3)c2nc1=O` registered a z-score of -0.664.
For the molecule `Cc1ccccc1NC(=O)C1CCCN(S(=O)(=O)c2cnc[nH]2)C1` (stereo not drawn), the z-score is -0.0966.
Then `Cc1cccc(OC(C)C(=O)NCc2ccc(S(N)(=O)=O)cc2)c1` (stereo not drawn), with -0.238; and `O=C(O)c1ccc(OC2CSC2)cc1`, with -0.101; and `Cn1c(-c2ccccc2)cnc1N`, with -0.412.
As for `CC(C)=CC(=O)Nc1ccccc1C(N)=O`, the z-score was found to be 0.312.
In the case of `Cc1cn(C2OC(COC(=O)c3ccccc3)C(OC(=O)c3ccccc3)C2OC(=O)c2ccccc2)c(=O)[nH]c1=O` (stereo not drawn), the z-score is -1.18.
`O=[n+]1c2c(n([O-])c3c1CCC3)CCCC2` showed a z-score of -0.212.
As for `O=C(O)/C=C\C(=O)NCc1ccccc1`, the z-score came out at 0.0876.
Then `CCCCN(Cc1ccccc1)C(=O)C1CCN(S(=O)(=O)c2c(C)noc2C)CC1`, with -0.335.
Then `O=C(COC(=O)C1CCC(=O)N1)Nc1cc(Cl)ccc1Cl` (stereo not drawn), with 0.194.
Next, `COC(=O)C1CCN(S(=O)(=O)c2ccc(OC)cc2)CC1`: -0.0737; `COc1cc(OC)cc(-c2nnc(SCC(=O)N3CCCc4ccccc43)o2)c1`: -0.528; `COc1ccc2nc(C)cc(SCC(=O)N/N=C/c3ccc(O)cc3O)c2c1`: 0.263.
For `CC(C)N(Cc1nc(-c2ccccc2)no1)S(=O)(=O)c1ccccc1`, the z-score was -0.225.
Consider `Cc1nnc(SCC(=O)N2c3ccccc3CC2C)s1` (stereo not drawn), for which the z-score came to 0.212.
Next, `Nc1ccnn1Cc1cccs1`: -0.113.
